Source: paper PMC12040169 (PLOS Biology, 2025)
The other results are listed elsewhere or left out.

system: T1, C. trachomatis L2/434/Bu expressing GFP (CTL2-GFP); parameters: species or system HeLa; C. trachomatis total inclusion area by high-content imaging, normalised to DMSO; conditions: total inclusion area; 28.5 h, 10 µM; inhibitor
T1 construct: L2/434/Bu GFP intracellular growth in HeLa cells
Description: In this process, we also complemented the assay described above with an imaging-based readout (Fig 1B). After measurements of bulk GFP and resorufin fluorescence, cells were fixed, stained with the DNA dye Hoechst, and imaged at a high-content imaging platform to detect chlamydial inclusions (GFP) and host cell nuclei (Hoechst). The total area and number of inclusions in individual wells and the number of nuclei then served as additional proxies for chlamydial growth and host cell viability. […] MICs were calculated as described above.

Row | Structure (SMILES) | % of control remaining
1 | Cc1cc(=O)oc2cc(OCC(=O)Nc3ccc(S(=O)(=O)O)cc3)ccc12 [CBK301204N] | 94.435
2 | O=C(C1CCC1)N1CCN(c2ccccn2)CC1 [CBK026058] | 81.4713
3 | Cc1cc(COc2cc(C(F)(F)F)ccn2)no1 [CBK115787] | 133.308
4 | OCCNCCOc1ccc(Cl)cc1Br [CBK265083G] | 97.0748
5 | Cc1cccc(N/C=C(/C#N)c2nc(-c3ccc4c(c3)OCO4)cs2)c1C [CBK263013] | 91.7627
6 | Cc1ccc(-c2cncc(NCc3cccs3)n2)cc1C [CBK065967] | 121.932
7 | CCn1c(C)nnc1SCCNc1cc(C(C)C)nc2ccnn12 [CBK306829] | 62.4817
8 | O=C(O)/C=C\C(=O)NCC(=O)O [CBK260989] | 96.828
9 | COc1ccc(C(=O)Nc2ccc(C3c4ccsc4CCN3C(C)=O)cc2)cc1 (centres unmarked) [CBK286465] | 75.3338
10 | COc1ccc(C(=O)N2CC[C@H]3CC(=O)N(CCNC(C)=O)CC[C@H]3C2)cc1 [CBK288784] | 88.7796
11 | CCOC(=O)Cc1csc(SC(C)C(=O)N2CCNC2=O)n1 (centres unmarked) [CBK304551] | 101.323
12 | COCC(=O)N1CCN2C(=O)c3ccc(Cl)cc3NC(=O)[C@H]2C1 [CBK289588] | 104.222
13 | Cc1ccc2c(c1)cc(C(=O)N1CCCC(C)(C(=O)NC3CCCC3)C1)n2C (centres unmarked) [CBK286076] | 82.4391
14 | CN(C)CCCN1C(=O)C(O)=C(C(=O)c2ccc(F)cc2)C1c1ccco1 (centres unmarked) [CBK264456] | 103.973
15 | c1ccc2cc(CCN3CCN(c4nccnc4OCCN4CCOCC4)CC3)ccc2c1 [CBK082911T] | 85.9451
16 | CCOC(=O)c1[nH]c2ccccc2c1NS(=O)(=O)Cc1ccccc1 [CBK047413] | 107.521
17 | CS(=O)(=O)N1CC2(CCN(Cc3ncc[nH]3)CC2)c2ccccc21 [CBK126680] | 98.4402
18 | O=C(Nc1ccc(F)cc1)c1c(NS(=O)(=O)Cc2ccccc2[N+](=O)[O-])sc2c1CCCC2 [CBK028654] | 81.0667
19 | CCN1C(=O)c2ccccc2C(=O)[C@@]2(C)CN(C(C)C)C[C@@H]12 [CBK283480] | 80.3874
20 | COC(=O)[C@@H](C)NC(=O)[C@H]1CN(S(=O)(=O)c2ccccc2)CCN1C(C)=O [CBK289626] | 118.653
21 | Cc1nc(C)c(C(=O)N2CC(C(=O)N3CCN(c4ccccc4)CC3)C2)s1 [CBK285666] | 110.487
22 | O=C1Cc2ccccc2C2(CCN(C(=O)c3cccc4cccc(C(=O)O)c34)CC2)N1 [CBK047313] | 84.159
23 | CCOc1ccc(-c2ccnc(N3CCC(N(C)C)C3)n2)cc1C(=O)O (centres unmarked) [CBK307241] | 71.5806
24 | Cc1ccc(-n2c(SCC(=O)NC(C)Cc3ccccc3)nc3sc4c(c3c2=O)CC(C)(C)OC4)cc1 (centres unmarked) [CBK267714] | 102.955
25 | O=C(NCc1ccc2c(c1)OCO2)[C@H]1CN2CCC1C[C@@H]2Cn1cc(-c2ccccn2)nn1 (some centres unmarked) [CBK289082] | 103.607
26 | O=C(O)c1ccc(-n2nnnc2Sc2nc([N+](=O)[O-])nn2Cc2ccccc2F)cc1 [CBK268498] | 145.135

Row | Structure (SMILES) | % of control remaining
27 | C(=N\c1ccc(Cc2ccc(/N=C/c3cccnc3)cc2)cc1)/c1cccnc1 [CBK260884] | 109.852
28 | COc1ccc(OC)c(NC(=O)CN2CCC(C(N)=O)(N3CCCCC3)CC2)c1 [CBK268462] | 99.5875
29 | O=C(O)c1cccc(N2C(=O)CC(n3cnc4ccccc43)C2=O)c1 (centres unmarked) [CBK291145] | 103.547
30 | O=C(C[C@@H]1O[C@H](CNCc2cccc(Cl)c2)[C@@H](O)[C@H]1O)N1CCOCC1 [CBK288905] | 112.056
31 | CC(NCCN1CCOCC1)=C1C(=O)c2ccccc2C1=O [CBK262691] | 99.1088
32 | O=c1oc(-c2ccco2)nn1Cc1ccc([N+](=O)[O-])cc1 [CBK295593] | 94.4508
33 | CCCC(=O)CCOC(=O)C1=C(C)OC2C1Nc1cc(F)c(F)cc1N2CC (centres unmarked) [CBK022099] | 111.008
34 | CC(=O)Nc1ccc(-c2cncc(N3CCN(C(=O)c4ccco4)CC3)n2)cc1 [CBK066065] | 132.37
35 | O=C(c1cccs1)N1CCC(c2n[nH]c3ncccc23)CC1 [CBK284904] | 126.513
36 | Cc1noc(C)c1C(=O)N1CCC(c2nc(C)n3ccsc23)CC1 [CBK285239] | 123.871
37 | CC(C)c1n[nH]c(C2CN(Cc3nc4c(F)cccc4[nH]3)CCO2)n1 (centres unmarked) [CBK305225] | 31.0254
38 | CN1CCCN(c2nccnc2-c2cccs2)CC1 [CBK088823] | 92.8995
39 | CC(C)c1nnc(NS(=O)(=O)c2ccc(N)cc2)s1 [CBK050163] | 51.1918
40 | Cc1ccc(C(C)C(=O)N2CCC(C(=O)c3cccnc3)CC2)cc1 (centres unmarked) [CBK283516] | 96.8556
41 | O=C(Nc1cccc(C(F)(F)F)c1)Nc1cccc(S(=O)(=O)N2CCOCC2)c1 [CBK267043] | 53.5522
42 | CCC12CN3CC(CC)(CN(C1)C3c1ccccc1[N+](=O)[O-])C2=O (centres unmarked) [CBK264604] | 107.218
43 | Cc1nn(CCNC(=O)C2CC(=O)N(Cc3ccccn3)C2)c(C)c1Cl (centres unmarked) [CBK307316] | 69.7454
44 | N#CCCN(C1CCCCC1)S(=O)(=O)c1cccc2nsnc12 [CBK009093] | 95.8909
45 | O=S(=O)(c1ccc(Cl)cc1)N1CCN(c2cc(-c3ccco3)ncn2)CC1 [CBK091161] | 170.184
46 | CN(C)S(=O)(=O)Nc1ccc2[nH]ccc2c1 [CBK156321] | 100.36
47 | O=C1CN(Cc2cnn(-c3ccc(F)cc3)c2)CCN1C1CCCC1 [CBK281926] | 112.004
48 | Cc1ccc2cc(COc3cccnc3[N+](=O)[O-])c(Cl)nc2c1C [CBK297113] | 72.1368
49 | Cc1ccc(C2(O)CCN(CCNC(=O)c3cccs3)CC2)cc1 [CBK283322] | 85.7809
50 | Cc1nc[nH]c1CN(Cc1cccc(F)c1)Cc1ccco1 [CBK282493] | 93.6638
51 | O=C(c1ccc(OC(F)(F)F)cc1)N1CCC2(CCN(C(=O)c3cc(F)c(F)cc3F)C2)C1 (centres unmarked) [CBK131384] | 86.1278
52 | CS(=O)(=O)Nc1ncc(-c2ccco2)cc1C(=O)NCc1ccc(F)cc1 [CBK076479] | 67.5477

Row | Structure (SMILES) | % of control remaining
53 | Cc1cc(-c2cn3cc(C(=O)N4CCNCC4)nc3c(=O)n2C)c(C)o1 [CBK307325] | 66.4188
54 | COc1ccccc1-c1cnc(Nc2ccc(N3CCOCC3)cc2)c2nccn12 [CBK091230] | 141.699
55 | COc1cc(-c2nccnc2N[C@@H]2CCN(Cc3ccccc3)C2)cc(OC)c1OC [CBK037651] | 131.755
56 | CN(C)/C=N/c1nc(=O)[nH]c2c1ncn2C1CC(O)C(CO)O1 (centres unmarked) [CBK201285] | 131.708
57 | COc1ccc(C[C@@]23CC[C@@H](NC(=S)NCc4ccccc4)C[C@@H]2N(C)CC3)cc1 [CBK004262] | 74.3538
58 | CCC1CCCCN1C(=O)c1sc(C)nc1C (centres unmarked) [CBK089359] | 65.6688
59 | CCC(Sc1ccc2nnc(-c3cccnc3)n2n1)C(=O)O (centres unmarked) [CBK287623] | 102.796
60 | CN(C)S(=O)(=O)c1ccc2c(c1)nc1n2CCC1 [CBK115558] | 103.874
61 | CC(=O)C(C(=O)Nc1ccc(F)cc1)C(c1cccc2ccccc12)C(C#N)C#N (centres unmarked) [CBK262081] | 101.526
62 | O=C(NCC1CCCO1)c1ccccc1Sc1ccc([N+](=O)[O-])cc1Cl (centres unmarked) [CBK266041] | 108.546
63 | COc1cccc(CN2CCCC3(C2)NCCc2c3[nH]c3cc(F)ccc23)c1 (centres unmarked) [CBK039786] | 72.0466
64 | N#Cc1cccc(S(=O)(=O)N2CCCCC2CO)c1 (centres unmarked) [CBK051524] | 49.0309
65 | COc1ccc(OC)c(-c2nc(Nc3ccccc3C)sc2CC(=O)O)c1 [CBK126811] | 85.7873
66 | COc1ccc([C@@]23CC[C@@H](NC(=O)Nc4ccc(F)c(C#N)c4)C[C@@H]2N(C)CC3)cc1OC [CBK051659T] | 99.3848
67 | CCOC(=O)N1CCC(NS(=O)(=O)c2cc(Br)ccc2OC)CC1 [CBK045463] | 91.5208
68 | COC(=O)c1scc(NS(=O)(=O)c2cccc(C(F)(F)F)c2)c1C(=O)OC [CBK026680] | 89.9453
69 | Cc1[nH]c2ccc(F)cc2c1CC(=O)N(C)CCN1CCCCC1 [CBK282748] | 85.0808
70 | COc1cc(CNc2cc(-c3ccccc3N(C)C)ncn2)cc(OC)c1OC [CBK037123] | 93.7925
71 | Cc1ccc(OCCC(=O)NCC(c2cccs2)N2CCOCC2)cc1 (centres unmarked) [CBK305976] | 42.3091
72 | CSc1nc(O)c(C(c2ccc(C)cc2)c2c(O)nc(SC)nc2O)c(O)n1 [CBK265313] | 100.562
73 | O=S(=O)(Nc1ccc(N2CCNCC2)c2ccccc12)c1cc(Cl)sc1Cl [CBK003116C] | 63.2254
74 | COc1cccc(CN2CCN(C(=O)c3cc(-c4ccncc4)nc4ccc(C)cc34)CC2)c1 [CBK267760] | 94.4258
75 | COc1ccc(CCn2cncc2-c2cn(C)nc2C)cc1C [CBK281814] | 114.767
76 | O=C(CCN1CCOCC1)Nc1cc(Cl)cc(Cl)c1 [CBK057021] | 92.4238
77 | CC(C)C(NC(=O)C1CCC(C(C)(C)C)CC1)C(=O)O (centres unmarked) [CBK286610] | 85.6696
